Values marked as one replicate rest on one cluster of the flow cell; about a third of the high ones do not repeat.
These sequences were tested on ATP (assay: switch fluorescence ratio, 500 uM ATP over buffer (Cy3 cluster intensity, sum of 5 cycles each) (fold (ratio)); higher = stronger signal-on switching upon ATP binding; sequences stand for … in TCGTCGGCAGCGTCAGATGTGTATAAGAGACAGTTTTTTTTTTTTTTTTTTTTTTTTT…TC). Conditions: aptamer strand: ATP DNA aptamer (quencher-CACCTGGGGGAGTATTGCGGAGGAAGG + anchor), 100 nM annealed; ATP concentration: 500 uM; one replicate.
In short: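 Cy3-labelled switching-strand clusters on a modified Illumina MiSeq flow-cell were annealed to 100 nM quencher-labelled ATP aptamer, imaged in selection buffer, then imaged after 15 min with 500 uM ATP at 22 °C. Five buffer/ATP cycles ran, with NaOH stripping and re-annealing between them. The fluorescence ratio is summed target-cycle over summed buffer-cycle Cy3 intensity per cluster, averaged per switch-domain sequence. Clusters outside 100-1000 RFU were excluded.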
Sequence AACGACAGCG has a switch fluorescence ratio of 0.953.
In the case of AACGACGGAT, the switch fluorescence ratio is reported as 1.08.
Sequence AACGACGTAT has a switch fluorescence ratio of 1.01.
For AACGAGGCTA, the switch fluorescence ratio was 1.33.
AACGAGGTCT gave a switch fluorescence ratio of 1.03.
Work on AACGAGTTTC yielded a switch fluorescence ratio of 1.01.
AACGATGACT was tested, and the switch fluorescence ratio was 1.11.
Sequence AACGCAGGCG has a switch fluorescence ratio of 1.
Sequence AACGCCGGT has a switch fluorescence ratio of 0.999.
In the case of AACGCCTTTG, the switch fluorescence ratio is reported as 1.05.
In the case of AACGGAGTCT, the switch fluorescence ratio is reported as 0.99.
AACGGATCAA was tested, and the switch fluorescence ratio was 0.978.
With AACGGCCAAT the switch fluorescence ratio was 1.07.
Work on AACGGCGGCT yielded a switch fluorescence ratio of 1.06.
For AACGGCTACC, the switch fluorescence ratio was 1.31.
AACGGCTTAA gave a switch fluorescence ratio of 1.01.
Work on AACGGGATC yielded a switch fluorescence ratio of 1.27.
AACGGGCAGC showed a switch fluorescence ratio of 1.01.
AACGGGCGTG was tested, and the switch fluorescence ratio was 1.02.
For AACGGGCTAC, the switch fluorescence ratio was 1.14.
Work on AACGGGGCTA yielded a switch fluorescence ratio of 1.02.
For AACGGGTGTG, the switch fluorescence ratio was 1.02.
AACGGGTGTT was tested, and the switch fluorescence ratio was 1.01.
Sequence AACGGTAACG has a switch fluorescence ratio of 1.
Work on AACGGTACTA yielded a switch fluorescence ratio of 1.36.
With AACGGTTATA the switch fluorescence ratio was 1.01.
AACGGTTTC showed a switch fluorescence ratio of 1.
AACGTAGCTA was tested, and the switch fluorescence ratio was 1.63.
AACGTAGGCG showed a switch fluorescence ratio of 1.01.
Sequence AACGTCCTGA has a switch fluorescence ratio of 1.04.
With AACGTCTATC the switch fluorescence ratio was 1.02.
With AACGTGCAGC the switch fluorescence ratio was 1.01.
In the case of AACGTGGTTA, the switch fluorescence ratio is reported as 1.
AACGTTTAT showed a switch fluorescence ratio of 0.983.
AACTACAGCG was tested, and the switch fluorescence ratio was 1.03.
AACTAGTGCT showed a switch fluorescence ratio of 0.953.
AACTATTGG gave a switch fluorescence ratio of 1.
In the case of AACTCAAGCA, the switch fluorescence ratio is reported as 1.12.
AACTCACTTC showed a switch fluorescence ratio of 1.13.
In the case of AACTCCGGCT, the switch fluorescence ratio is reported as 1.01.
With AACTCTG the switch fluorescence ratio was 1.
AACTCTGCT was tested, and the switch fluorescence ratio was 1.05.
For AACTGCCTGG, the switch fluorescence ratio was 1.01.
AACTGCGCCG showed a switch fluorescence ratio of 1.07.
Work on AACTGGATCC yielded a switch fluorescence ratio of 1.02.
AACTTAAGTT gave a switch fluorescence ratio of 0.958.
AACTTAGTA was tested, and the switch fluorescence ratio was 0.992.
For AACTTCCGGC, the switch fluorescence ratio was 1.76.
AACTTCTATG gave a switch fluorescence ratio of 1.01.
In the case of AACTTGCTCA, the switch fluorescence ratio is reported as 1.06.
With AACTTTATGG the switch fluorescence ratio was 1.03.
For AACTTTGAAG, the switch fluorescence ratio was 1.03.
Sequence AAGAACAAGT has a switch fluorescence ratio of 0.951.
AAGAACCGGC gave a switch fluorescence ratio of 1.13.
Work on AAGAACGAGG yielded a switch fluorescence ratio of 1.02.
AAGAACTAAT was tested, and the switch fluorescence ratio was 1.03.
In the case of AAGAAGATAG, the switch fluorescence ratio is reported as 1.03.
AAGAAGATG showed a switch fluorescence ratio of 1.13.
In the case of AAGAATCTCA, the switch fluorescence ratio is reported as 0.995.
In the case of AAGAATGTGG, the switch fluorescence ratio is reported as 0.964.
AAGACAACCT showed a switch fluorescence ratio of 2.13.
For AAGACATGAA, the switch fluorescence ratio was 1.
With AAGACGGGCC the switch fluorescence ratio was 0.993.
Work on AAGACGTTGT yielded a switch fluorescence ratio of 1.
For AAGAGAATTT, the switch fluorescence ratio was 0.975.
AAGAGCAGGA gave a switch fluorescence ratio of 0.995.
In the case of AAGAGGAACG, the switch fluorescence ratio is reported as 1.11.
AAGAGGGAAG was tested, and the switch fluorescence ratio was 1.01.
Work on AAGAGGTCTG yielded a switch fluorescence ratio of 0.99.
For AAGAGTGACC, the switch fluorescence ratio was 1.03.
With AAGAGTGTTT the switch fluorescence ratio was 1.03.
AAGAGTTCGG gave a switch fluorescence ratio of 0.998.
In the case of AAGATAATCT, the switch fluorescence ratio is reported as 0.99.
AAGATAGGAT gave a switch fluorescence ratio of 1.01.
For AAGATATGCG, the switch fluorescence ratio was 0.995.
Work on AAGATATGGG yielded a switch fluorescence ratio of 1.01.
Work on AAGATATGGT yielded a switch fluorescence ratio of 0.982.
Sequence AAGATCGAGG has a switch fluorescence ratio of 1.03.
Sequence AAGATGCAAC has a switch fluorescence ratio of 1.05.
AAGATGCCGG gave a switch fluorescence ratio of 0.961.
AAGATGGGG was tested, and the switch fluorescence ratio was 1.03.
AAGATGTTAA gave a switch fluorescence ratio of 0.97.
For AAGATTAAGT, the switch fluorescence ratio was 0.979.
Work on AAGATTCCTG yielded a switch fluorescence ratio of 1.03.
For AAGATTCGAG, the switch fluorescence ratio was 0.996.
AAGCAATGCT gave a switch fluorescence ratio of 2.61.
AAGCACATTT showed a switch fluorescence ratio of 1.18.
With AAGCACCTCG the switch fluorescence ratio was 1.16.
Sequence AAGCACGTGG has a switch fluorescence ratio of 0.988.
AAGCACTCAA was tested, and the switch fluorescence ratio was 1.2.
Sequence AAGCACTTAA has a switch fluorescence ratio of 1.1.
AAGCAGCACG gave a switch fluorescence ratio of 0.996.
For AAGCATGAGA, the switch fluorescence ratio was 1.03.
For AAGCCACGAC, the switch fluorescence ratio was 1.19.
In the case of AAGCCAGGCT, the switch fluorescence ratio is reported as 0.99.
Sequence AAGCCATCGT has a switch fluorescence ratio of 1.07.
AAGCCCTTCG was tested, and the switch fluorescence ratio was 1.2.
AAGCCGCAGG was tested, and the switch fluorescence ratio was 1.4.
Sequence AAGCCTCATG has a switch fluorescence ratio of 1.02.
AAGCCTGGTA gave a switch fluorescence ratio of 0.985.
For AAGCCTT, the switch fluorescence ratio was 1.15.
With AAGCGCCGGG the switch fluorescence ratio was 0.983.
Work on AAGCGCTTCT yielded a switch fluorescence ratio of 1.03.
For AAGCGTGTCC, the switch fluorescence ratio was 0.993.
With AAGCGTTC the switch fluorescence ratio was 1.03.
In the case of AAGCGTTCTT, the switch fluorescence ratio is reported as 0.992.
With AAGCTACACT the switch fluorescence ratio was 1.06.
Work on AAGCTAGGGG yielded a switch fluorescence ratio of 0.974.
With AAGCTATGTA the switch fluorescence ratio was 0.98.
AAGCTCATCC gave a switch fluorescence ratio of 1.07.
For AAGCTGGCGT, the switch fluorescence ratio was 0.996.
Work on AAGCTGGTGC yielded a switch fluorescence ratio of 0.977.
With AAGGAACGA the switch fluorescence ratio was 1.03.
With AAGGAAGGGC the switch fluorescence ratio was 0.984.
Sequence AAGGAAGTTG has a switch fluorescence ratio of 1.05.
With AAGGAATGAG the switch fluorescence ratio was 0.981.
With AAGGAATTG the switch fluorescence ratio was 1.07.
Sequence AAGGACACTA has a switch fluorescence ratio of 1.05.
In the case of AAGGACCAGT, the switch fluorescence ratio is reported as 1.05.
AAGGACGAAT was tested, and the switch fluorescence ratio was 1.02.
Work on AAGGACGGAT yielded a switch fluorescence ratio of 0.998.
With AAGGACTCCA the switch fluorescence ratio was 1.06.
Work on AAGGAGAAAT yielded a switch fluorescence ratio of 1.03.
In the case of AAGGAGAACG, the switch fluorescence ratio is reported as 1.01.
AAGGAGTGTT gave a switch fluorescence ratio of 1.02.
With AAGGATAAGT the switch fluorescence ratio was 0.997.
AAGGATCGGT was tested, and the switch fluorescence ratio was 0.996.
AAGGATTGGA showed a switch fluorescence ratio of 0.968.
For AAGGCACGGC, the switch fluorescence ratio was 1.03.
AAGGCCACAC showed a switch fluorescence ratio of 1.07.
For AAGGCCATCG, the switch fluorescence ratio was 1.02.
AAGGCTTAAA gave a switch fluorescence ratio of 0.967.
AAGGGATTC gave a switch fluorescence ratio of 0.963.
AAGGGCACGG was tested, and the switch fluorescence ratio was 1.01.
With AAGGGGCCAA the switch fluorescence ratio was 1.03.
Sequence AAGGGGCGGT has a switch fluorescence ratio of 0.99.
AAGGGGTA gave a switch fluorescence ratio of 1.06.
Sequence AAGGGGTAAG has a switch fluorescence ratio of 0.983.
AAGGGTTCT was tested, and the switch fluorescence ratio was 1.
In the case of AAGGTAAAAC, the switch fluorescence ratio is reported as 1.
With AAGGTAATCT the switch fluorescence ratio was 0.965.
With AAGGTATTGT the switch fluorescence ratio was 0.995.
Sequence AAGGTCAACC has a switch fluorescence ratio of 1.03.
In the case of AAGGTCCTTG, the switch fluorescence ratio is reported as 1.01.
With AAGGTGAATA the switch fluorescence ratio was 0.973.
With AAGGTGAGCT the switch fluorescence ratio was 1.
For AAGGTGAGT, the switch fluorescence ratio was 1.05.
AAGGTGCCTA gave a switch fluorescence ratio of 1.01.
Sequence AAGGTGGGGC has a switch fluorescence ratio of 1.04.
For AAGGTTAAAT, the switch fluorescence ratio was 0.978.
In the case of AAGGTTCTGT, the switch fluorescence ratio is reported as 0.983.
With AAGGTTTAGC the switch fluorescence ratio was 0.973.
With AAGGTTTCTT the switch fluorescence ratio was 1.
AAGTAAAACG was tested, and the switch fluorescence ratio was 0.979.
Work on AAGTAAACAC yielded a switch fluorescence ratio of 1.04.
In the case of AAGTAAGCG, the switch fluorescence ratio is reported as 0.985.
With AAGTACCAGG the switch fluorescence ratio was 1.37.
In the case of AAGTAGCTAG, the switch fluorescence ratio is reported as 0.96.
AAGTAGTACT showed a switch fluorescence ratio of 1.04.
Sequence AAGTAGTCC has a switch fluorescence ratio of 0.982.
With AAGTATAGGG the switch fluorescence ratio was 1.1.
Sequence AAGTATCCAG has a switch fluorescence ratio of 0.962.
For AAGTATGGGC, the switch fluorescence ratio was 0.987.
AAGTATGTAG was tested, and the switch fluorescence ratio was 1.07.
With AAGTCACATA the switch fluorescence ratio was 1.08.
In the case of AAGTCCACCA, the switch fluorescence ratio is reported as 1.04.
AAGTCCT showed a switch fluorescence ratio of 0.999.
AAGTCGAATC was tested, and the switch fluorescence ratio was 1.03.
With AAGTCGGC the switch fluorescence ratio was 0.952.
In the case of AAGTCGGTA, the switch fluorescence ratio is reported as 1.06.
Work on AAGTCTGGGA yielded a switch fluorescence ratio of 0.957.
For AAGTGAACTC, the switch fluorescence ratio was 0.994.
AAGTGATGGA showed a switch fluorescence ratio of 0.997.
In the case of AAGTGATTTC, the switch fluorescence ratio is reported as 0.981.
Work on AAGTGCATCG yielded a switch fluorescence ratio of 0.987.
For AAGTGCCCGA, the switch fluorescence ratio was 0.967.
AAGTGGAAGA was tested, and the switch fluorescence ratio was 0.994.
AAGTGGGCAC was tested, and the switch fluorescence ratio was 0.976.
For AAGTGTACGG, the switch fluorescence ratio was 1.03.
AAGTGTATGT gave a switch fluorescence ratio of 0.993.
Work on AAGTGTTGCA yielded a switch fluorescence ratio of 0.971.
For AAGTTACTTC, the switch fluorescence ratio was 1.03.
Work on AAGTTAGATG yielded a switch fluorescence ratio of 0.995.
Work on AAGTTAGCGC yielded a switch fluorescence ratio of 1.01.
AAGTTGCAAT showed a switch fluorescence ratio of 1.08.
In the case of AAGTTGTACC, the switch fluorescence ratio is reported as 1.01.
Sequence AAGTTGTACT has a switch fluorescence ratio of 0.971.
Work on AAGTTTGGCC yielded a switch fluorescence ratio of 0.995.
In the case of AAGTTTTAAT, the switch fluorescence ratio is reported as 1.02.
AAGTTTTCAC was tested, and the switch fluorescence ratio was 1.
AATAAAAAC showed a switch fluorescence ratio of 0.977.
AATAAACCCT showed a switch fluorescence ratio of 1.15.
AATAAAGACT was tested, and the switch fluorescence ratio was 0.984.
With AATAACAATC the switch fluorescence ratio was 1.03.
AATAACAGC gave a switch fluorescence ratio of 0.999.
In the case of AATAACGCCG, the switch fluorescence ratio is reported as 1.03.
Sequence AATAAGGGAG has a switch fluorescence ratio of 0.963.
For AATAAGGGCA, the switch fluorescence ratio was 1.02.
For AATAAGGGTA, the switch fluorescence ratio was 1.03.
AATAAGTGAG gave a switch fluorescence ratio of 1.08.
AATAAGTTGC gave a switch fluorescence ratio of 0.983.

— the supplement of paper PMC10126150
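Also: ATP exposure 15 min at 22 °C before imaging.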
